The values below come from the BET-seq Pho4 binding data (Le et al. 2018).

The other results are listed elsewhere or left out. The energies were worked out here from pooled read counts, against the library average; single values are noisy.

For this experiment, the target named is T1, Pho4 (S. cerevisiae) (UniProt P07270).
T1 sequence: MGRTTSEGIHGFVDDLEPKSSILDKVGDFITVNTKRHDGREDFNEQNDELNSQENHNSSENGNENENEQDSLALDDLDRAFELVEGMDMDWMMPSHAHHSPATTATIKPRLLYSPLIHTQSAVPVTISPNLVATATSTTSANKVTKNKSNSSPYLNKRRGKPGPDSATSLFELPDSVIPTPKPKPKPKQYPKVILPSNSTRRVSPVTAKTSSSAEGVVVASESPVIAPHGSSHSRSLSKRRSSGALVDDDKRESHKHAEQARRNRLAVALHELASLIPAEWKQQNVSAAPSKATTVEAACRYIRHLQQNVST
The experiment can be described thus: relative binding free energy (BET-seq); higher = weaker binding. Conditions: reference: library average.
ATATTCACGTGGATGT: the “relative binding free energy” value was 0.29 kcal/mol.
As for GTTTACACGTGTGGTA, the “relative binding free energy” value was found to be 0.11 kcal/mol.
Regarding GTGTACACGTGGCCGG, the “relative binding free energy” value was -0.06 kcal/mol.
The value for TAGTGCACGTGGTATA was -0.1 kcal/mol.
Consider GTTTTCACGTGATATC, for which the “relative binding free energy” value was determined as 0.35 kcal/mol.
The value for GGGGTCACGTGGGTGG was 0.03 kcal/mol; that for GCTTGCACGTGGAAGG was 0.11 kcal/mol.
To GGAGGCACGTGTGTGG belongs 0.03 kcal/mol.
To CCGTTCACGTGTTGTG belongs 0.16 kcal/mol; to GAGTCCACGTGGATTT, 0.3 kcal/mol.
In the case of TTCCGCACGTGTGGTG, the “relative binding free energy” value amounted to 0.02 kcal/mol.
Take ATGGACACGTGAAGAT: the “relative binding free energy” value was found to be 0.35 kcal/mol.
TGAGACACGTGCGTGT: the “relative binding free energy” value is -0.16 kcal/mol.
To AGTTACACGTGGCGAG belongs 0.05 kcal/mol.
To GTTCTCACGTGATGTG belongs 0.28 kcal/mol; to TGTCGCACGTGAGTTT, 0.08 kcal/mol; to AGGGGCACGTGGCTAG, -0.13 kcal/mol.
With TATATCACGTGGTTGA, the “relative binding free energy” value was 0 kcal/mol.
To GGGAGCACGTGCTGGG belongs -0.01 kcal/mol.
On to CGGTTCACGTGGGAGG, for which the “relative binding free energy” value came to 0.22 kcal/mol.
The value for GGAATCACGTGGTAGA was 0.21 kcal/mol.
The value for TGTTTCACGTGATTGT was 0.26 kcal/mol; that for AGCGTCACGTGTTTTG was -0.02 kcal/mol; that for TTGTTCACGTGTAGTT was 0.37 kcal/mol.
In the case of TGGGCCACGTGGAGTT, the “relative binding free energy” value is -0.01 kcal/mol.
The value for ATAGACACGTGTGGCG was 0.12 kcal/mol; that for TTTAGCACGTGATGCG was 0.07 kcal/mol; that for TAGTGCACGTGGAATA was 0.14 kcal/mol.
As for ATGCTCACGTGAGAGT, the “relative binding free energy” value is 0.33 kcal/mol.
To ATCAACACGTGGTGTG belongs -0.12 kcal/mol; to AGAGACACGTGGAAGT, 0.19 kcal/mol; to GAAGACACGTGAAGGT, 0.35 kcal/mol.
The value for GAGAGCACGTGGAGGA was -0.12 kcal/mol; that for ATTTGCACGTGTAGAC was 0.14 kcal/mol.
Regarding GGAAGCACGTGGCGGA, the “relative binding free energy” value was -0.21 kcal/mol.
For the sequence ATTTGCACGTGTCAAG, the “relative binding free energy” value was -0.04 kcal/mol.
To TTAATCACGTGGCTAG belongs 0.03 kcal/mol.
For GTTTGCACGTGTAGGG, the “relative binding free energy” value was found to be 0.17 kcal/mol.
Consider AGGGGCACGTGCGCTG, for which the “relative binding free energy” value was -0.19 kcal/mol.
The value for GTAAGCACGTGATCGT was 0.05 kcal/mol; that for TATGTCACGTGTAGGT was 0.04 kcal/mol.
The value for AGTGACACGTGGTGCG was -0.09 kcal/mol; that for CAGTGCACGTGTAAGT was 0.08 kcal/mol.
With GGTTACACGTGGAATA, the “relative binding free energy” value is 0.18 kcal/mol.
To ATGTTCACGTGGTAAA belongs 0.3 kcal/mol.
With GTGCTCACGTGGGTGA, the “relative binding free energy” value was 0.05 kcal/mol.
The value for TGATTCACGTGCGAGG was 0.21 kcal/mol; that for GGGTGCACGTGGCATG was -0.12 kcal/mol; that for GTGTACACGTGGGGGA was -0.09 kcal/mol.
The value for ATGTGCACGTGAGGGT was 0.15 kcal/mol; that for CAGGTCACGTGACTGG was 0.21 kcal/mol.
Take TCATGCACGTGTAAGG: the “relative binding free energy” value was 0.05 kcal/mol.
On to GTCGTCACGTGGGAAA, for which the “relative binding free energy” value amounted to 0.16 kcal/mol.
To AGGAACACGTGATGGT belongs 0.36 kcal/mol; to TGCTGCACGTGGATAT, 0 kcal/mol.
The value for AGATTCACGTGAGGTA was 0.28 kcal/mol.
For the sequence GGTATCACGTGTATGC, the “relative binding free energy” value was determined as 0.15 kcal/mol.
For AGGGACACGTGACGGG, the “relative binding free energy” value is -0.03 kcal/mol.
Turning to TGCCTCACGTGAGGGG, the “relative binding free energy” value is 0.34 kcal/mol.
AGTTGCACGTGGTCGA: the “relative binding free energy” value was determined as 0.02 kcal/mol.
To GGGACCACGTGATGGT belongs -0.04 kcal/mol; to GGGTTCACGTGAGGAT, 0.43 kcal/mol; to TTGATCACGTGGGGGG, 0.03 kcal/mol.
The value for ATGGTCACGTGTAGGT was 0.13 kcal/mol; that for TGCCTCACGTGTGTTG was 0.07 kcal/mol; that for AGAGGCACGTGAGTTA was 0.05 kcal/mol.
The value for GTGTGCACGTGATTGG was 0.14 kcal/mol; that for GTCTTCACGTGTGTTT was 0.38 kcal/mol.
With GATAACACGTGGGGGT, the “relative binding free energy” value was -0.1 kcal/mol.
The value for CGAGGCACGTGTATAG was -0.1 kcal/mol; that for TTTTTCACGTGCGATT was 0.19 kcal/mol; that for GTTTGCACGTGTACGG was 0.05 kcal/mol.
On to GGTTGCACGTGCTCTT, for which the “relative binding free energy” value worked out at 0.03 kcal/mol.
